Test results: the supplement of paper PMC7125110
± gives the standard error. Variants at the background level are over-represented here.

B1: glmS ribozyme (parent)
chain: AUAAAAGCGCCAGAACUACAGAAAUGUAGUUGACGAGGAGGAGGUUUAUCGAAUUUUCGGCGGAUGCCUCCAAA

Tests used:
Details in all cases: with glucosamine-6-phosphate
glucosamine-6-phosphate [1] = variants of: B1; experiment: self-cleavage kobs at 40 uM GlcN6P; higher = faster cleavage; RNA array
Procedure, shortened: (§1)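 E. coli RNA polymerase transcribed barcoded ribozyme variants in situ on sequenced MiSeq chips, which were tracked via a hybridised Cy3 probe at 37 °C. Tiles were imaged over ~14 h after glucosamine-6-phosphate (40 μM to 10 mM) in HEPES/KCl/Mg(OAc)2 buffer was flowed in. Normalised per-tile medians were fit to one- or two-exponential decays for kobs, and kcat and KM came from weighted Michaelis–Menten fits.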

glucosamine-6-phosphate [2] = variants of: B1; experiment: self-cleavage kobs at 10000 uM GlcN6P; higher = faster cleavage; RNA array
Procedure, shortened: as §1

glucosamine-6-phosphate [3] = variants of: B1; experiment: self-cleavage kobs at 640 uM GlcN6P; higher = faster cleavage; RNA array
Procedure, shortened: as §1

glucosamine-6-phosphate [4] = variants of: B1; experiment: self-cleavage kobs at 160 uM GlcN6P; higher = faster cleavage; RNA array
Procedure, shortened: as §1

glucosamine-6-phosphate [5] = variants of: B1; experiment: self-cleavage kobs at 2500 uM GlcN6P; higher = faster cleavage; RNA array
Procedure, shortened: as §1

Row | Variant | self-cleavage kobs at 40 uM GlcN6P (glucosamine-6-phosphate [1]) | self-cleavage kobs at 10000 uM GlcN6P (glucosamine-6-phosphate [2]) | self-cleavage kobs at 640 uM GlcN6P (glucosamine-6-phosphate [3]) | self-cleavage kobs at 160 uM GlcN6P (glucosamine-6-phosphate [4]) | self-cleavage kobs at 2500 uM GlcN6P (glucosamine-6-phosphate [5])
1 | AUAAAAGCGCCAGAACUACAGAAAUGUAGGUGACGAGGAGGAGGUUUAUAGAAUUUUCGGCGGAUGCCUCCAAA [U30G C50A] | < 1e-05 s⁻¹ |  |  |  | 
2 | AUAAAAGCGCCAGAACUACAGAAAUGUAGAUGACGAGGAGGAGGUUUAUCGAAUUUUCGGCGGAUCCCUGCAAA [U30A G66C C70G] | < 1e-05 s⁻¹ |  |  |  | 
3 | AUAAAAGCGCCAGAACUACAGAAAUGUAGCUGAUGAGGAGGAGGUUUAUCGAAUUUUCGGCGGACGCCUCCAAA [U30C C34U U65C] | < 1e-05 s⁻¹ | < 1e-05 s⁻¹ |  |  | 
4 | AUAAAAGCGCCAGAACUACAGAAAUGUAGGUGACGAGGAGGAGGUUUAACGAAUUUUCGGCGGAUGCCUCCAAA [U30G U49A] | < 1e-05 s⁻¹ | < 1e-05 s⁻¹ | < 1e-05 s⁻¹ | < 1e-05 s⁻¹ | 
5 | AUAAAAGCGCCAGAACUACAGAAAUGUAGCUGACGAGGAGGAGGUUUACCGAAUUUUCGGCGGAUGCCUCCAAA [U30C U49C] | < 1e-05 s⁻¹ | < 1e-05 s⁻¹ |  | < 1e-05 s⁻¹ | 
6 | AUAAAAGCGCCAGAACUACAGAAAUGUAGCUGACGAGGAAGAGUUUUAUCGAAUUUUCGGCGGAUGCCUCCAAA [U30C G40A G44U] | < 1e-05 s⁻¹ | < 1e-05 s⁻¹ |  |  | 
7 | AUAAAAGCGCCAGAACUACAGAAAUGUAGAAGACGAGGAGGAGGUUUAUCGAAUUUUCGGCGGAUGCCUCCAAA [U30A U31A] | 0.000419 ± 7.6e-05 s⁻¹ |  | 0.00269 ± 0.00057 s⁻¹ | 0.00152 ± 0.00033 s⁻¹ | 
8 | AUAAAAGCGCCAGAACUACAGAAAUGUAGUAGACGAGGAGGAGGUUUAUCGAAUUUUCGGGGGCUGCCUCCAAA [U31A C61G A64C] | < 1e-05 s⁻¹ | < 1e-05 s⁻¹ | < 1e-05 s⁻¹ |  | < 1e-05 s⁻¹
9 | AUAAAAGCGCCAGAACUACAGAAAUGUAGAUGACGAGGAGGAGGUUUAUCGAAUUUUAGCCGGAUGCCGCCAAA [U30A C58A G60C U69G] | < 1e-05 s⁻¹ |  |  |  | 
10 | AUAAAAGCGCCAGAACUACAGAAAUGUAGGUAACGAGGAGGAGGUUUAUCGAAUUUUCGGCGGAUGCCUCCAAA [U30G G32A] | 5.91e-05 ± 1.1e-05 s⁻¹ |  |  |  | 
11 | AUAAAAGCGCCAGAACUACAGAAAUGUAGAUGAAUAGGAGGAGGUUUAUCGAAUUUACGGCGGAUGCCUCCAAA [U30A C34A G35U U57A] | < 1e-05 s⁻¹ |  |  |  | 
12 | AUAAAAGCGCCAGAACUACAGAAAUGUAGUAGACGAGGAGGAGGUUUCUCGAAUUUUCGGCGGAUGCCUCCAAA [U31A A48C] | < 1e-05 s⁻¹ | 0.00014 ± 2.4e-05 s⁻¹ | 4.87e-05 ± 1.3e-05 s⁻¹ | < 1e-05 s⁻¹ | 7.42e-05 ± 1.5e-05 s⁻¹
13 | AUAAAAGCGCCAGAACUACAGAAAUGUAGAUGACGAGGAGGAGCUUUAUCGAAUUAUCGGCUGAUGCCUCCAAA [U30A G44C U56A G62U] | < 1e-05 s⁻¹ |  |  |  | 
14 | AUAAAAGCGCCAGAACUACAGAAAUGUAGAUGACGAGGAGGAUGUUUAUCGAAUUUUCGGCGGAUGUCUCCAAA [U30A G43U C67U] | < 1e-05 s⁻¹ |  |  |  | 
15 | AUAAAAGCGCCAGAACUACAGAAAUGUAGUAGACCAGGAGGAGGUUUAUCGAAUUUUCGGCGGAUGCCUCCAAA [U31A G35C] | < 1e-05 s⁻¹ | < 1e-05 s⁻¹ | < 1e-05 s⁻¹ | < 1e-05 s⁻¹ | < 1e-05 s⁻¹
16 | AUAAAAGCGCCAGAACUACAGAAAUGUAGGUGACGAGGAGGAGGUUUAUCGAAUUUUCUGCGGAUGCCUCAAAA [U30G G59U C71A] | < 1e-05 s⁻¹ | < 1e-05 s⁻¹ |  |  | 
17 | AUAAAAGCGCCAGAACUACAGAAAUGUAGAUGACGAGGAGGAGGUUUAUCGAAUUUUGGGCGGACGCCUCCAAA [U30A C58G U65C] | < 1e-05 s⁻¹ |  |  |  | 

Row | Variant | self-cleavage kobs at 40 uM GlcN6P (glucosamine-6-phosphate [1]) | self-cleavage kobs at 10000 uM GlcN6P (glucosamine-6-phosphate [2]) | self-cleavage kobs at 640 uM GlcN6P (glucosamine-6-phosphate [3]) | self-cleavage kobs at 160 uM GlcN6P (glucosamine-6-phosphate [4]) | self-cleavage kobs at 2500 uM GlcN6P (glucosamine-6-phosphate [5])
18 | AUAAAAGCGCCAGAACUACAGAAAUGUAGCUGACGAGGAGGAGGUUUAUCGAAUAUGCGGCGGAUGCCUCCAAA [U30C U55A U57G] | < 1e-05 s⁻¹ |  |  |  | 
19 | AUAAAAGCGCCAGAACUACAGAAAUGUAGGUGACCAGGAGGAGGUUUAUCGAAUUUUCGGCGGAUGCCUCCAAA [U30G G35C] | < 1e-05 s⁻¹ | < 1e-05 s⁻¹ | < 1e-05 s⁻¹ | < 1e-05 s⁻¹ | < 1e-05 s⁻¹
20 | AUAAAAGCGCCAGAACUACAGAAAUGUAGGUGACAAGGAGGAGGUUUAUCGAAUUUUCGGCGGUUGCCUCCAAA [U30G G35A A64U] | < 1e-05 s⁻¹ |  |  |  | 
21 | AUAAAAGCGCCAGAACUACAGAAAUGUAGCUGACGAGGAGGAGGGUUAUCGAAUUUUCGGCGGAUGCCUCCAAA [U30C U45G] | < 1e-05 s⁻¹ |  |  | < 1e-05 s⁻¹ | 
22 | AUAAAAGCGCCAGAACUACAGAAAUGUAGGUGACGAGGAUGAGGUUUAUCGAAUUUUCGGCGGAUGCCUCCAAA [U30G G40U] | 3.53e-05 ± 1.3e-05 s⁻¹ | 0.000668 ± 7.3e-05 s⁻¹ | 0.000212 ± 2.9e-05 s⁻¹ | 6.94e-05 ± 1.5e-05 s⁻¹ | 0.000615 ± 0.00014 s⁻¹
23 | AUAAAAGCGCCAGAACUACAGAAAUGUAGGUGACGAGGAGGAGUUUUAUCGAAUUUUCGGCGGAUGCCUCCAAA [U30G G44U] | < 1e-05 s⁻¹ | 4.23e-05 ± 1.3e-05 s⁻¹ |  | < 1e-05 s⁻¹ | 
24 | AUAAAAGCGCCAGAACUACAGAAAUGUAGGUGACGAGGAGGAGAUUUAUCGAAUUUUCGGCGGAUGCCUCCAAA [U30G G44A] | < 1e-05 s⁻¹ |  |  |  | 
25 | AUAAAAGCGCCAGAACUACAGAAAUGUAGGUGACGAGGAGGAGGUUUCUCGAAUUUUCGGCGGAUGCCUGCAAA [U30G A48C C70G] | < 1e-05 s⁻¹ |  |  |  | 
26 | AUAAAAGCGCCAGAACUACAGAAAUGUAGUAUACGAGGAGGCGGUUUAUCGAAUUUUCGGCGGAUGCCACAAAA [U31A G32U A42C U69A C71A] | < 1e-05 s⁻¹ |  |  |  | < 1e-05 s⁻¹
27 | AUAAAAGCGCCAGAACUACAGAAAUGUAGUAGACGAGGAGGGGGUUUAUUUAAUUUUCGGGGGAUGCCUCCAAA [U31A A42G C50U G51U C61G] | < 1e-05 s⁻¹ | < 1e-05 s⁻¹ |  |  | 
28 | AUAAAAGCGCCAGAACUACAGAAAUGUAGCUGACAAGGAGGAGGUUUAUGGAAUUUUCGGUGGGUGCCUCCAAA [U30C G35A C50G C61U A64G] | 0.000165 ± 5.1e-05 s⁻¹ |  |  |  | 
29 | AUAAAAGCGCCAGAACUACAGAAAUGUAGGUGACGAGGAGGAGGUUUAUCAAAUUUUCGGCGGAUGCCUCCAAA [U30G G51A] | < 1e-05 s⁻¹ |  |  | < 1e-05 s⁻¹ | 
30 | AUAAAAGCGCCAGAACUACAGAAAUGUAGCUGACGAGGAGGAGGUUUUUCGAAUUUUCGGCGGAUGCCUCCAAA [U30C A48U] | < 1e-05 s⁻¹ | < 1e-05 s⁻¹ | < 1e-05 s⁻¹ | < 1e-05 s⁻¹ | 
31 | AUAAAAGCGCCAGAACUACAGAAAUGUAGUAGACGAGGAGGAGGUUUAUCGAAUUUUCGGCGGAUGGAUCCAAA [U31A C67G C68A] | < 1e-05 s⁻¹ | < 1e-05 s⁻¹ |  |  | 
32 | AUAAAAGCGCCAGAACUACAGAAAUGUAGAUGACGAGGAGGAGAUUUAUCGAAUUUUCGGCGGAUGCCUCCAAA [U30A G44A] | < 1e-05 s⁻¹ |  |  |  | 
33 | AUAAAAGCGCCAGAACUACAGAAAUGUAGCUGACGAGGAGGAGGUUUAACGAAUUUUCGCCGGAUGCCUCCAAA [U30C U49A G60C] | < 1e-05 s⁻¹ |  | < 1e-05 s⁻¹ |  | 
34 | AUAAAAGCGCCAGAACUACAGAAAUGUAGAUGAAGAGGAGGAGGUUUAUCGAAUUUUCGGCGGAUGCCUCCAAA [U30A C34A] | < 1e-05 s⁻¹ | < 1e-05 s⁻¹ | < 1e-05 s⁻¹ | < 1e-05 s⁻¹ | < 1e-05 s⁻¹
